In ChEMBL document CHEMBL1961873, “Compounds: GSK PKIS; Assays: Nanosyn kinase panel” (2012):
For some assays here: The strong results were mostly taken out for another list; the other results follow. The entries are a selection whose mix differs from that of the whole data set.

Biological target: T1, Serine/threonine-protein kinase BRSK1 (Homo sapiens) (UniProt Q8TDC3);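 further: each value is a mean percent inhibition of BRSK1 kinase activity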
T1 sequence (whole entry): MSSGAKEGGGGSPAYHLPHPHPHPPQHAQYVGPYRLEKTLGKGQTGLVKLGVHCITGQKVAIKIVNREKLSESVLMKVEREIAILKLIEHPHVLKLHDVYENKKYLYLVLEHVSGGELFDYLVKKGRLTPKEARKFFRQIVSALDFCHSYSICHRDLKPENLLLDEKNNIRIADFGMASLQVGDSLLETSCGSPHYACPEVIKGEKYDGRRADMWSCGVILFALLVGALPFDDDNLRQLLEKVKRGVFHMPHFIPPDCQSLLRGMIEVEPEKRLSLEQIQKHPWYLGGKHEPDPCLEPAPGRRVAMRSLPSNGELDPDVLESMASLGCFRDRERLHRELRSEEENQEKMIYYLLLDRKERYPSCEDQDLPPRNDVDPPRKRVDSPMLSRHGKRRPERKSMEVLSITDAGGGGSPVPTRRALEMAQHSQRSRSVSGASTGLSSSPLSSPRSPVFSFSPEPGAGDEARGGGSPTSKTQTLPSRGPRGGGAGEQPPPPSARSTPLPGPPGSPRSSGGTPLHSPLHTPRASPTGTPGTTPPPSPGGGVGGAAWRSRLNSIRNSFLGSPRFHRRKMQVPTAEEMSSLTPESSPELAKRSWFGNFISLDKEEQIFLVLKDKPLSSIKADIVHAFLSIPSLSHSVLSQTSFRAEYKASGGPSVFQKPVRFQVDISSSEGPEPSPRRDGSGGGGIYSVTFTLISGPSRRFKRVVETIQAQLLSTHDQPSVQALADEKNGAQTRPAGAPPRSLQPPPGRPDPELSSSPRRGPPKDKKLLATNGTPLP
Details: at 1 µM

Compound	inhibition
O=C(O)c1ccc(Oc2nccc(-c3c(-c4ccc(F)cc4)ncn3C3CCNCC3)n2)cc1	0.18%
CC(C)(C)c1ccc(Oc2nccc(-c3c(-c4ccc(F)cc4)ncn3C3CCNCC3)n2)cc1	1.95%
Fc1ccc(Oc2nccc(-c3c(-c4ccc(F)cc4)ncn3C3CCNCC3)n2)cc1	-1.18%
COc1ccccc1C1=C(Nc2ccccc2)C(=O)NC1=O	7.08%
Fc1ccc(-c2ncn(C3CCNCC3)c2-c2ccnc(Oc3ccc(Cl)cc3)n2)cc1	-0.05%
NC(=O)CCc1ccccc1Oc1nccc(-c2c(-c3ccc(F)cc3)ncn2C2CCNCC2)n1	-0.65%
COc1ccccc1Oc1nccc(-c2c(-c3ccc(F)cc3)ncn2C2CCNCC2)n1	5.48%
CS(=O)(=O)c1ccc(Oc2nccc(-c3c(-c4ccc(F)cc4)ncn3C3CCNCC3)n2)cc1	2.13%
Cc1cccc(Oc2nccc(-c3c(-c4ccc(F)cc4)ncn3C3CCNCC3)n2)c1C	4.29%
Fc1ccc(-c2ncn(C3CCNCC3)c2-c2ccnc(Oc3cccc(F)c3)n2)cc1	0.74%
Fc1ccc(-c2ncn(C3CCNCC3)c2-c2ccnc(Oc3cccc(C(F)(F)F)c3)n2)cc1	2.06%
O=C1NC(=O)C(c2ccccc2Cl)=C1Nc1cc(Cl)c(O)c(Cl)c1	2.29%
O=C1NC(=O)C(c2ccccc2)=C1Nc1ccccc1	9.22%
O=C1NC(=O)C(c2cccc([N+](=O)[O-])c2)=C1Nc1cc(Cl)c(O)c(Cl)c1	4.78%

Biological target: T2, Serine/threonine-protein kinase BRSK2 (Homo sapiens) (UniProt Q8IWQ3)
T2 sequence (whole entry): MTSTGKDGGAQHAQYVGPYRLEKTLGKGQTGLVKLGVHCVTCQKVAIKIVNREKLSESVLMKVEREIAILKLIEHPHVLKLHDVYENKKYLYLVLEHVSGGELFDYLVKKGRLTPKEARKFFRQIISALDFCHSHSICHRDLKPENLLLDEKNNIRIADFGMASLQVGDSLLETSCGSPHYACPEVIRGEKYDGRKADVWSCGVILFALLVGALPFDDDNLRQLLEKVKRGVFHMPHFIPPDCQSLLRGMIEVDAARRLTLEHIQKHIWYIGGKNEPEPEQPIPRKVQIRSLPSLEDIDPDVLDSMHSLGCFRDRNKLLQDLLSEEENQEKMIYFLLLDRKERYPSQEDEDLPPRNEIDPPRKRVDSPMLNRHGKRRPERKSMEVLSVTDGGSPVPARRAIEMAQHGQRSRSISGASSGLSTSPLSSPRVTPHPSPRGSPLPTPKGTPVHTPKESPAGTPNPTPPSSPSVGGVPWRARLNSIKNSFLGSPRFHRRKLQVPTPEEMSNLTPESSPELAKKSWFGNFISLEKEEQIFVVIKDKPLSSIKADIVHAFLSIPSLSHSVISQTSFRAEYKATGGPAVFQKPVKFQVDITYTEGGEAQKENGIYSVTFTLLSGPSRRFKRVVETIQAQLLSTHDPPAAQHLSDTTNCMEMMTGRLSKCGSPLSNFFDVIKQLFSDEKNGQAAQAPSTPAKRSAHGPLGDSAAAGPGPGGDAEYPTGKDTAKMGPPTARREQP
Details: at 0.1 µM

Compound	inhibition
O=C(O)c1ccc(Oc2nccc(-c3c(-c4ccc(F)cc4)ncn3C3CCNCC3)n2)cc1	1.07%
CC(C)(C)c1ccc(Oc2nccc(-c3c(-c4ccc(F)cc4)ncn3C3CCNCC3)n2)cc1	1.03%
Fc1ccc(Oc2nccc(-c3c(-c4ccc(F)cc4)ncn3C3CCNCC3)n2)cc1	0.12%
COc1ccccc1C1=C(Nc2ccccc2)C(=O)NC1=O	3.57%
Fc1ccc(-c2ncn(C3CCNCC3)c2-c2ccnc(Oc3ccc(Cl)cc3)n2)cc1	1.2%
NC(=O)CCc1ccccc1Oc1nccc(-c2c(-c3ccc(F)cc3)ncn2C2CCNCC2)n1	-0.46%
COc1ccccc1Oc1nccc(-c2c(-c3ccc(F)cc3)ncn2C2CCNCC2)n1	4.98%
CS(=O)(=O)c1ccc(Oc2nccc(-c3c(-c4ccc(F)cc4)ncn3C3CCNCC3)n2)cc1	0.61%
Cc1cccc(Oc2nccc(-c3c(-c4ccc(F)cc4)ncn3C3CCNCC3)n2)c1C	4.04%
Fc1ccc(-c2ncn(C3CCNCC3)c2-c2ccnc(Oc3cccc(F)c3)n2)cc1	1.57%
Fc1ccc(-c2ncn(C3CCNCC3)c2-c2ccnc(Oc3cccc(C(F)(F)F)c3)n2)cc1	2.52%
O=C1NC(=O)C(c2ccccc2Cl)=C1Nc1cc(Cl)c(O)c(Cl)c1	0.83%
O=C1NC(=O)C(c2ccccc2)=C1Nc1ccccc1	6.92%
O=C1NC(=O)C(c2cccc([N+](=O)[O-])c2)=C1Nc1cc(Cl)c(O)c(Cl)c1	1.7%

Biological target: T2, Serine/threonine-protein kinase BRSK2 (Homo sapiens)
Details: at 1 µM

Compound	inhibition
O=C(O)c1ccc(Oc2nccc(-c3c(-c4ccc(F)cc4)ncn3C3CCNCC3)n2)cc1	2.38%
CC(C)(C)c1ccc(Oc2nccc(-c3c(-c4ccc(F)cc4)ncn3C3CCNCC3)n2)cc1	4.66%
Fc1ccc(Oc2nccc(-c3c(-c4ccc(F)cc4)ncn3C3CCNCC3)n2)cc1	1.42%
COc1ccccc1C1=C(Nc2ccccc2)C(=O)NC1=O	12%
Fc1ccc(-c2ncn(C3CCNCC3)c2-c2ccnc(Oc3ccc(Cl)cc3)n2)cc1	1.96%
NC(=O)CCc1ccccc1Oc1nccc(-c2c(-c3ccc(F)cc3)ncn2C2CCNCC2)n1	1.55%
COc1ccccc1Oc1nccc(-c2c(-c3ccc(F)cc3)ncn2C2CCNCC2)n1	8.17%
CS(=O)(=O)c1ccc(Oc2nccc(-c3c(-c4ccc(F)cc4)ncn3C3CCNCC3)n2)cc1	1.12%
Cc1cccc(Oc2nccc(-c3c(-c4ccc(F)cc4)ncn3C3CCNCC3)n2)c1C	4.92%
Fc1ccc(-c2ncn(C3CCNCC3)c2-c2ccnc(Oc3cccc(F)c3)n2)cc1	4.54%
Fc1ccc(-c2ncn(C3CCNCC3)c2-c2ccnc(Oc3cccc(C(F)(F)F)c3)n2)cc1	3.08%
O=C1NC(=O)C(c2ccccc2Cl)=C1Nc1cc(Cl)c(O)c(Cl)c1	4.26%
O=C1NC(=O)C(c2ccccc2)=C1Nc1ccccc1	11.5%
O=C1NC(=O)C(c2cccc([N+](=O)[O-])c2)=C1Nc1cc(Cl)c(O)c(Cl)c1	3.68%

Biological target: Calcium/calmodulin-dependent protein kinase type 1D (Homo sapiens) (UniProt Q8IU85);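 further: reported figure is the mean inhibition of CAMK1D, from the GSK PKIS screening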
Details: at 0.1 µM

UniProt Q8IU85, sequence (Q8IU85 whole entry, looked up): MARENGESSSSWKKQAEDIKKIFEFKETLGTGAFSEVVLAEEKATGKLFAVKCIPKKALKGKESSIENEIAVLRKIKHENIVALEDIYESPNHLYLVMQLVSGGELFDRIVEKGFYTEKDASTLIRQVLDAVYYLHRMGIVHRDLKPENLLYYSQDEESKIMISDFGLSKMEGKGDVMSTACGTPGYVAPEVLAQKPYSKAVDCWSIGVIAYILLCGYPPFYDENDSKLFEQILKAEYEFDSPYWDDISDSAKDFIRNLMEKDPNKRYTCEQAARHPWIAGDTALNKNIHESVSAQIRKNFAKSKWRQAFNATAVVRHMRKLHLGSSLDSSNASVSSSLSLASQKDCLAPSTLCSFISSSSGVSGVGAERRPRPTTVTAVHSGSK

Compound	inhibition
O=C(O)c1ccc(Oc2nccc(-c3c(-c4ccc(F)cc4)ncn3C3CCNCC3)n2)cc1	-0.18%
CC(C)(C)c1ccc(Oc2nccc(-c3c(-c4ccc(F)cc4)ncn3C3CCNCC3)n2)cc1	1.26%
Fc1ccc(Oc2nccc(-c3c(-c4ccc(F)cc4)ncn3C3CCNCC3)n2)cc1	-1.43%
COc1ccccc1C1=C(Nc2ccccc2)C(=O)NC1=O	0.72%
Fc1ccc(-c2ncn(C3CCNCC3)c2-c2ccnc(Oc3ccc(Cl)cc3)n2)cc1	-0.56%
NC(=O)CCc1ccccc1Oc1nccc(-c2c(-c3ccc(F)cc3)ncn2C2CCNCC2)n1	-0.35%
COc1ccccc1Oc1nccc(-c2c(-c3ccc(F)cc3)ncn2C2CCNCC2)n1	-0.13%
CS(=O)(=O)c1ccc(Oc2nccc(-c3c(-c4ccc(F)cc4)ncn3C3CCNCC3)n2)cc1	1.28%
Cc1cccc(Oc2nccc(-c3c(-c4ccc(F)cc4)ncn3C3CCNCC3)n2)c1C	4.41%
Fc1ccc(-c2ncn(C3CCNCC3)c2-c2ccnc(Oc3cccc(F)c3)n2)cc1	-0.3%
Fc1ccc(-c2ncn(C3CCNCC3)c2-c2ccnc(Oc3cccc(C(F)(F)F)c3)n2)cc1	0.93%
O=C1NC(=O)C(c2ccccc2Cl)=C1Nc1cc(Cl)c(O)c(Cl)c1	-0.96%
O=C1NC(=O)C(c2ccccc2)=C1Nc1ccccc1	0.62%
O=C1NC(=O)C(c2cccc([N+](=O)[O-])c2)=C1Nc1cc(Cl)c(O)c(Cl)c1	1.08%
